# According to publication PMC5540273 (PLoS ONE, 2017):
# For some assays here: This list holds what a sample rich in strong results left over. Only a part is listed here, and it is no random draw.
# Tested on: PRKX
# Conditions: concentration: 1 μM,replicates: in singlicate; n = 1
# 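Note: KINOMEscan kinase panel screen.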
row,SMILES,%Inh [%]
1,O=C1NC(=O)C(c2ccccc2Cl)=C1Nc1ccccc1 [SB-376715],22
2,CS(=O)(=O)c1ccccc1-c1nc(-c2ccc(F)cc2)c(-c2ccncc2)[nH]1 [SB-213663],0
3,O=C1NC(=O)C(c2ccc(Cl)cc2)=C1Nc1cccc(O)c1 [SB-333613],0

# Tested on: PRP4
# Conditions: concentration: 1 μM,replicates: in singlicate; n = 1
row,SMILES,%Inh [%]
1,O=C1NC(=O)C(c2ccc(Cl)cc2)=C1Nc1ccc(O)c(Cl)c1 [SB-405367],32
2,O=C1NC(=O)C(c2ccc(Cl)cc2)=C1Nc1ccccc1 [SB-317661],0
3,COc1cccc(C2=C(Nc3ccc(SC)cc3)C(=O)NC2=O)c1 [SB-331032],0
4,Cc1ccc(C)c(Oc2nccc(-c3c(-c4ccc(F)cc4)ncn3C3CCNCC3)n2)c1.O=C(O)C(F)(F)F.O=C(O)C(F)(F)F.O=C(O)C(F)(F)F [SB-284852],0
5,O=C1NC(=O)C(c2ccccc2Cl)=C1Nc1cccc(C(=O)O)c1 [SB-390526],31
6,O=C1NC(=O)C(c2ccccc2)=C1Nc1cc(Cl)c(O)c(Cl)c1 [SB-390530],8
7,CSc1ccc(NC2=C(c3cccc(Cl)c3)C(=O)NC2=O)cc1 [SB-341528],37
8,O=C1NC(=O)c2c1c(-c1ccccc1)cc1[nH]c3ccc(O)cc3c21,10
9,Cc1cc(C)cc(Oc2nccc(-c3c(-c4ccc(F)cc4)ncn3C3CCNCC3)n2)c1.O=C(O)C(F)(F)F.O=C(O)C(F)(F)F.O=C(O)C(F)(F)F [SB-284851],34
10,COc1ccc(C2=C(Nc3cccc(Cl)c3)C(=O)NC2=O)cc1 [SB-326892],0
11,O=C(O)c1ccc(-c2nc(-c3ccc(F)cc3)c(-c3ccncc3)[nH]2)cc1 [SB-202620],0
12,O=C1NC(=O)C(c2ccccc2)=C1Nc1ccc(Cl)c(C(=O)O)c1 [SB-390532],46
13,O=C1NC(=O)C(c2ccc(Cl)cc2)=C1Nc1cccc(C(=O)O)c1 [SB-360737],33
14,O=C1NC(=O)C(c2ccccc2Cl)=C1Nc1ccccc1 [SB-376715],2
15,CS(=O)(=O)c1ccccc1-c1nc(-c2ccc(F)cc2)c(-c2ccncc2)[nH]1 [SB-213663],0
16,O=C1NC(=O)C(c2ccc(Cl)cc2)=C1Nc1cccc(O)c1 [SB-333613],0

# Tested on: T1, PYK2
# T1 construct: gene PTK2B
# Conditions: concentration: 1 μM,replicates: in singlicate; n = 1
row,SMILES,%Inh [%]
1,O=C1NC(=O)C(c2ccc(Cl)cc2)=C1Nc1ccc(O)c(Cl)c1 [SB-405367],18
2,O=C1NC(=O)C(c2ccc(Cl)cc2)=C1Nc1ccccc1 [SB-317661],16
3,COc1cccc(C2=C(Nc3ccc(SC)cc3)C(=O)NC2=O)c1 [SB-331032],0
4,Cc1ccc(C)c(Oc2nccc(-c3c(-c4ccc(F)cc4)ncn3C3CCNCC3)n2)c1.O=C(O)C(F)(F)F.O=C(O)C(F)(F)F.O=C(O)C(F)(F)F [SB-284852],96.5
5,O=C1NC(=O)C(c2ccccc2Cl)=C1Nc1cccc(C(=O)O)c1 [SB-390526],14
6,O=C1NC(=O)C(c2ccccc2)=C1Nc1cc(Cl)c(O)c(Cl)c1 [SB-390530],0
7,CSc1ccc(NC2=C(c3cccc(Cl)c3)C(=O)NC2=O)cc1 [SB-341528],0
8,O=C1NC(=O)c2c1c(-c1ccccc1)cc1[nH]c3ccc(O)cc3c21,9
9,Cc1cc(C)cc(Oc2nccc(-c3c(-c4ccc(F)cc4)ncn3C3CCNCC3)n2)c1.O=C(O)C(F)(F)F.O=C(O)C(F)(F)F.O=C(O)C(F)(F)F [SB-284851],22
10,COc1ccc(C2=C(Nc3cccc(Cl)c3)C(=O)NC2=O)cc1 [SB-326892],0
11,O=C(O)c1ccc(-c2nc(-c3ccc(F)cc3)c(-c3ccncc3)[nH]2)cc1 [SB-202620],24
12,O=C1NC(=O)C(c2ccccc2)=C1Nc1ccc(Cl)c(C(=O)O)c1 [SB-390532],0
13,O=C1NC(=O)C(c2ccc(Cl)cc2)=C1Nc1cccc(C(=O)O)c1 [SB-360737],6
14,O=C1NC(=O)C(c2ccccc2Cl)=C1Nc1ccccc1 [SB-376715],0
15,O=C1NC(=O)C(c2ccc(Cl)cc2)=C1Nc1cccc(O)c1 [SB-333613],0

# Tested on: QSK
# Conditions: concentration: 1 μM,replicates: in singlicate; n = 1
row,SMILES,%Inh [%]
1,O=C1NC(=O)C(c2ccc(Cl)cc2)=C1Nc1ccc(O)c(Cl)c1 [SB-405367],14
2,O=C1NC(=O)C(c2ccc(Cl)cc2)=C1Nc1ccccc1 [SB-317661],0
3,COc1cccc(C2=C(Nc3ccc(SC)cc3)C(=O)NC2=O)c1 [SB-331032],0
4,Cc1ccc(C)c(Oc2nccc(-c3c(-c4ccc(F)cc4)ncn3C3CCNCC3)n2)c1.O=C(O)C(F)(F)F.O=C(O)C(F)(F)F.O=C(O)C(F)(F)F [SB-284852],0
5,O=C1NC(=O)C(c2ccccc2Cl)=C1Nc1cccc(C(=O)O)c1 [SB-390526],17
6,O=C1NC(=O)C(c2ccccc2)=C1Nc1cc(Cl)c(O)c(Cl)c1 [SB-390530],0
7,CSc1ccc(NC2=C(c3cccc(Cl)c3)C(=O)NC2=O)cc1 [SB-341528],19
8,O=C1NC(=O)c2c1c(-c1ccccc1)cc1[nH]c3ccc(O)cc3c21,38
9,Cc1cc(C)cc(Oc2nccc(-c3c(-c4ccc(F)cc4)ncn3C3CCNCC3)n2)c1.O=C(O)C(F)(F)F.O=C(O)C(F)(F)F.O=C(O)C(F)(F)F [SB-284851],0
10,COc1ccc(C2=C(Nc3cccc(Cl)c3)C(=O)NC2=O)cc1 [SB-326892],0
11,O=C(O)c1ccc(-c2nc(-c3ccc(F)cc3)c(-c3ccncc3)[nH]2)cc1 [SB-202620],0
12,O=C1NC(=O)C(c2ccccc2)=C1Nc1ccc(Cl)c(C(=O)O)c1 [SB-390532],0
13,O=C1NC(=O)C(c2ccc(Cl)cc2)=C1Nc1cccc(C(=O)O)c1 [SB-360737],7
14,O=C1NC(=O)C(c2ccccc2Cl)=C1Nc1ccccc1 [SB-376715],13
15,CS(=O)(=O)c1ccccc1-c1nc(-c2ccc(F)cc2)c(-c2ccncc2)[nH]1 [SB-213663],0
16,O=C1NC(=O)C(c2ccc(Cl)cc2)=C1Nc1cccc(O)c1 [SB-333613],21
